Data taken from the supplement of paper PMC7826260.
Some of the results follow. Each Rep nickase domain was tested in vitro on the same pool of single strands for 1 h at 37 °C with 3 µM enzyme; only the middle of the 90-letter strands is printed. The score is log2 (uncut reads / reads without enzyme); more negative means more cut, near 0 not cut, and no call is made. Shares of all reads are compared, so uncut sequences can rise above 0 when many others are cut.

Assays:
Test in all cases: uncleaved DNA left, log2 of reads against the no-enzyme library (log2 ratio); higher = less cleavage (more negative = more Rep cleavage of the k-mer); sequences stand for … in CTCGTCCG…ACCGGAGA
[1] = test system: T1, Rep nickase domain of Muscovy duck circovirus
T1 sequence (residues 1-111 of Rep, tag left off): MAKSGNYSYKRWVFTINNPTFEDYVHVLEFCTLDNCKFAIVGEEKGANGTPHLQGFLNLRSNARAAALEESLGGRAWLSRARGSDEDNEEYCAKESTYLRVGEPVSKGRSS
Description: (§1)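 A pool of 90-nt single-stranded DNAs with seven random bases just before the constant AC of the nick site (name = the seven bases) was cut by 3 µM recombinant His6-SUMO-tagged Rep nickase domain (300 nM DNA, 50 mM HEPES pH 8.0, 50 mM NaCl, 1 mM MnCl2, 1 h, 37 °C, three replicates). Uncut DNA was amplified and sequenced.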

[2] = test system: T2, Rep nickase domain of banana bunchy top virus
T2 sequence (residues 1-94 of Rep, tag left off): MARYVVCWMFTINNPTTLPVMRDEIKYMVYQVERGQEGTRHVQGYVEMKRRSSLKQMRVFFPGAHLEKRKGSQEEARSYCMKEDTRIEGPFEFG
Description: as §1

[3] = test system: T3, Rep nickase domain of cabbage leaf curl virus
T3 sequence (residues 1-116 of Rep, tag left off): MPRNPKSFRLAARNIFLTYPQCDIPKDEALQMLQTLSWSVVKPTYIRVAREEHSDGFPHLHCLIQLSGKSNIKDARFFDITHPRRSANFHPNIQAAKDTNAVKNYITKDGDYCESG
Description: as §1

[4] = test system: T4, Rep nickase domain of chickpea chlorotic dwarf virus
T4 sequence (residues 1-124 of Rep, tag left off): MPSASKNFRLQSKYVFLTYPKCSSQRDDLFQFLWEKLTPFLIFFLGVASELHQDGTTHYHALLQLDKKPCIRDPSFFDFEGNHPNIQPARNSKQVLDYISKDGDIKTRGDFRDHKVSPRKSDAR
Description: as §1

[5] = test system: T5, Rep nickase domain of faba bean necrotic yellows virus
T5 sequence (residues 1-98 of Rep, tag left off): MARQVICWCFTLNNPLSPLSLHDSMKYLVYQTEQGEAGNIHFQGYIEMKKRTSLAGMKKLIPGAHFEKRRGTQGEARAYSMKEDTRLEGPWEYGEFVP
Description: as §1

[6] = test system: T6, Rep nickase domain of maize striate mosaic virus
T6 sequence (residues 1-117 of Rep, tag left off): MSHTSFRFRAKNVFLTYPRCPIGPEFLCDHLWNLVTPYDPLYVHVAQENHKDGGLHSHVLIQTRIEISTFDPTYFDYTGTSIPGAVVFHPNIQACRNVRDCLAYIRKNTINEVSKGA
Description: as §1

[7] = test system: T7, Rep nickase domain of porcine circovirus 2
T7 sequence (residues 2-116 of Rep, tag left off): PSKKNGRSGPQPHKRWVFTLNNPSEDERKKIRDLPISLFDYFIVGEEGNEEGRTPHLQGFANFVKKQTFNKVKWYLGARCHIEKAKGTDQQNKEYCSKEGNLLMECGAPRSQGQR
Description: as §1

[8] = test system: T8, Rep nickase domain of tomato golden mosaic virus
T8 sequence (residues 1-124 of Rep, tag left off): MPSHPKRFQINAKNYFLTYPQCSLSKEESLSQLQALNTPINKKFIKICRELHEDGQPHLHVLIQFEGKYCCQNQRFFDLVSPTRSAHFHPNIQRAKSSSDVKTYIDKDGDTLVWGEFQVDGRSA
Description: as §1

[9] = test system: T9, Rep nickase domain of tomato yellow leaf curl virus
T9 sequence (residues 1-136 of Rep, tag left off): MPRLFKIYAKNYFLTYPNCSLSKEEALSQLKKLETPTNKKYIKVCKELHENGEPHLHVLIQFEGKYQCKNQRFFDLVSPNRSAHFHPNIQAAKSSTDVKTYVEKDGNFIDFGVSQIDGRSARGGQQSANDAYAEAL
Description: as §1

[10] = test system: T10, Rep nickase domain of wheat dwarf virus
T10 sequence (residues 1-137 of Rep, tag left off): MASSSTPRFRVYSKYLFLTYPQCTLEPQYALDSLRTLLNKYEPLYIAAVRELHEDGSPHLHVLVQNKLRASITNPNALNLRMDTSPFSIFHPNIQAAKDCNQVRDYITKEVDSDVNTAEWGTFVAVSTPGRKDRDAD
Description: as §1

Sequence | uncleaved DNA left (log2) [1] | uncleaved DNA left (log2) [2] | uncleaved DNA left (log2) [3] | uncleaved DNA left (log2) [4] | uncleaved DNA left (log2) [5] | uncleaved DNA left (log2) [6] | uncleaved DNA left (log2) [7] | uncleaved DNA left (log2) [8] | uncleaved DNA left (log2) [9] | uncleaved DNA left (log2) [10]
TACAGGT | 0.0127 | -0.0223 | 0.193 | 0.879 | -0.000103 | 1.47 | 0.0343 | 0.0285 | -0.0717 | -0.0152
GCCACGT | 0.0489 | 0.0515 | 0.303 | 0.431 | 0.0576 | 0.0761 | 0.188 | 0.148 | 0.00995 | 0.0978
GCTGAAA | 0.0611 | 0.0824 | 0.128 | 0.6 | 0.0627 | 0.782 | 0.0685 | 0.0804 | 0.0967 | 0.0616
TGCAATC | -0.124 | 0.0515 | 0.0839 | 0.534 | -0.072 | 0.201 | 0.0334 | 1.46e-05 | 0.0663 | -0.0493
GACTGCG | 0.00936 | -0.103 | -0.288 | 1.04 | -0.0191 | 0.631 | 0.107 | -0.033 | -0.155 | -0.115
TGGACGG | 0.0386 | 0.0581 | 0.574 | 1.62 | 0.0146 | 1.9 | 0.134 | 0.0532 | 0.0783 | 0.105
GCCTATC | -0.243 | -0.0802 | -0.00206 | 0.379 | -0.0385 | -0.0519 | -0.0032 | -0.177 | -0.00785 | -0.0757
AAGGTAG | 0.109 | 0.0139 | -0.326 | -0.262 | 0.135 | -0.73 | 0.384 | 0.159 | -0.0169 | 0.0414
AATTGCG | 0.000287 | -0.025 | 0.661 | 1.5 | 0.214 | 2.18 | 0.127 | 0.123 | -0.25 | 0.121
AGCCTGT | 0.147 | -0.0325 | 0.221 | 0.731 | 0.0167 | 1.62 | 0.098 | 0.126 | -0.104 | 0.134
ACCTCCC | -0.0959 | 0.0654 | -0.094 | -0.0377 | 0.0983 | 0.224 | -0.0284 | -0.021 | -0.123 | -0.0109
AAGTGTC | 0.0416 | -0.0863 | -0.00803 | -0.13 | -0.0498 | -0.2 | -2.6 | -0.00621 | -0.0441 | 0.0746
ATACGGA | 0.155 | 0.0623 | 0.212 | 0.393 | 0.0477 | 0.106 | 0.146 | 0.108 | -0.0487 | 0.0482
GTAAGCG | 0.0179 | -0.0534 | -0.721 | 0.52 | -0.0242 | -0.559 | 0.196 | -0.0139 | 0.00485 | -0.0796
GATAGAT | 0.235 | 0.138 | 0.372 | 0.726 | 0.152 | 1.44 | 0.0194 | 0.107 | 0.0956 | 0.212
CATTCAG | 0.114 | -0.0305 | -0.714 | -0.064 | 0.0383 | -0.931 | 0.191 | 0.0833 | 0.114 | -0.044
ATTACTC | 0.00711 | -0.0403 | -0.0273 | -2.09 | 0.0357 | -0.675 | 0.049 | -0.00871 | 0.00308 | 0.0842
TCTCTCT | 0.0608 | -0.17 | 0.0564 | -1.93 | 0.0575 | -0.247 | -0.221 | -0.0594 | -0.0223 | -0.0936
GCCAATT | 0.0543 | -0.00447 | 0.199 | -0.668 | -0.0528 | 0.176 | -0.104 | 0.0518 | 0.184 | -0.0419
CACACAT | 0.0232 | -0.0135 | -0.0749 | -2.31 | -0.0877 | -0.3 | -0.203 | 0.0547 | 0.00686 | 0.00859
ATGACTG | 0.0127 | -0.0639 | 0.0621 | 0.723 | -0.0172 | 1.68 | 0.14 | 0.0776 | -0.0694 | 0.0295
GAAACGA | 0.0367 | 0.0439 | 0.155 | 0.222 | -0.0289 | -0.255 | 0.0777 | -0.0345 | 0.0322 | 0.106
TCCGGGA | -0.0367 | -0.104 | 0.459 | 0.868 | -0.0621 | 1.64 | 0.0958 | -0.0216 | 0.0585 | 0.0165
TATGAAA | -0.0164 | 0.18 | 0.163 | -0.566 | 0.0146 | -0.251 | -0.0485 | 0.085 | 0.0927 | 0.148
GATGCAA | 0.0771 | 0.0597 | 0.145 | 0.625 | 0.0389 | 0.602 | 0.0272 | 0.063 | 0.0164 | 0.105
AAGCTTC | 0.021 | -0.0467 | 0.11 | -0.142 | -0.125 | 0.118 | -0.207 | 0.0139 | -0.0606 | -0.0238
ATTTCGG | -0.0352 | 0.00876 | 0.505 | 1.43 | -0.095 | 1.75 | 0.109 | 0.0802 | -0.188 | 0.047
ACAATCC | -0.000128 | 0.031 | -0.2 | -0.227 | 0.0291 | -0.48 | 0.137 | 0.00442 | -0.0983 | 0.0445
TCCTATA | 0.0144 | -0.0341 | -0.0212 | -1.51 | -0.0438 | -0.51 | -0.272 | 0.0826 | -0.0113 | -0.0281
AATACCC | -0.1 | -0.0406 | 0.0367 | -1.05 | 0.0196 | -0.239 | -0.862 | -0.083 | -0.13 | -0.0453
